Measured values: the supplement of paper PMC3334620
In all, about 33,000 sequences were measured (“E-score (-0.5 to 0.5)”: median about -0.036, highest 2% from about 0.37 on). The list shows a part of the results.

target: T1, Yer064c (UniProt P40041); test: PBM E-score (8-mer binding enrichment) (E-score (-0.5 to 0.5)); higher = stronger / more preferred TF binding; most listed sequences are background and not binding sites; conditions: protein concentration: 200 nM; construct: GST-full length
T1 sequence: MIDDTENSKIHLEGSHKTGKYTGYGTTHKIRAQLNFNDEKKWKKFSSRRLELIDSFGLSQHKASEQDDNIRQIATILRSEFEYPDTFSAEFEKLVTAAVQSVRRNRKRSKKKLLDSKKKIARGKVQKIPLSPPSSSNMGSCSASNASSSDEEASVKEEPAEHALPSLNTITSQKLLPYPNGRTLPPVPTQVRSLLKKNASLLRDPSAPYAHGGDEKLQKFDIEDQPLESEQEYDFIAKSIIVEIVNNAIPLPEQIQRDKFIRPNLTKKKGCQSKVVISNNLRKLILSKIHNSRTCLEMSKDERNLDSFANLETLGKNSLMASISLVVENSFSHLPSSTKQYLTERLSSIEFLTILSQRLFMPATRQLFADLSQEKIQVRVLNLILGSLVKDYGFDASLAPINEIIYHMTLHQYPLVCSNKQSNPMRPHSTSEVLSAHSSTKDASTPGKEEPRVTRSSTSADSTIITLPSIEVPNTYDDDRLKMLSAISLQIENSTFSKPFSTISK
Method: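 Universal 'all 10-mer' protein binding microarrays (Agilent AMADID 015681) probed with GST-tagged S. cerevisiae TFs (full-length or DBD) made by in vitro transcription/translation (PURExpress), about 100-200 nM. Bound TF was detected with fluorescent anti-GST. Each ungapped 8-mer (which stands for itself and its reverse complement) is scored by the PBM enrichment score (E-score), a modified Wilcoxon-Mann-Whitney statistic from -0.5 to +0.5, computed with the Universal PBM Analysis Suite. Scale: above 0.35 generally sequence-specific binding.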

| Sequence | PBM E-score |
| --- | --- |
| CAACGAAA | 0.131 |
| ACGGGAGG | -0.16 |
| TCTTACAA | 0.106 |
| ATTAGGAC | 0.131 |
| CGGCCCTA | -0.156 |
| GCACCAGC | -0.0846 |
| GCCGCTCA | -0.21 |
| GTAAACTA | 0.0929 |
| GTGTTCCA | 0.00081 |
| CCAAGTTC | -0.126 |
| GTCACCTA | 0.0872 |
| GTCAGTCA | 0.451 |
| CTGTATAC | -0.112 |
| ACGATTGC | 0.0745 |
| ACTTAATC | 0.354 |
| GGTATCAC | 0.0109 |
| GGCATCAC | -0.269 |
| ACAGATAC | -0.0982 |
| ATACACAT | 0.198 |
| GTACAGCA | -0.0833 |
| AATTCGGT | 0.107 |
| ACCTTAAA | 0.0208 |
| AGCCTAGG | -0.247 |
| AGGTTTTC | -0.189 |
| GAATAATA | -0.0836 |

| Sequence | PBM E-score |
| --- | --- |
| ACAAGGAT | 0.0163 |
| GACGGTTA | -0.15 |
| CTGGTGAA | -0.176 |
| CTACGTAC | 0.143 |
| ACGGAACC | -0.0612 |
| CATTATCG | 0.00113 |
| ATCGGTCA | -0.0592 |
| ATAAAAAG | 0.144 |
| GGGAATAA | -0.128 |
| AAAGCGAC | 0.0677 |
| CCTATACA | 0.0007 |
| ACGACCCG | -0.249 |
| ACGGGGGA | -0.202 |
| CCATCGCC | -0.148 |
| CACGGTGC | -0.282 |
| GGATTTGA | 0.0416 |
| CGTCCCCA | -0.283 |
| CCGCTATC | -0.21 |
| AAAGCACT | 0.07 |
| AATACGCC | -0.0474 |
| CTCTGCAC | -0.0711 |
| GCTGGCCC | -0.284 |
| CTTTACAC | 0.157 |
| AAGCGTCC | -0.0884 |
| CAGCAGAG | -0.112 |

| Sequence | PBM E-score |
| --- | --- |
| AGATATGC | -0.038 |
| CGCTAAAG | -0.00634 |
| AAAAGTCA | 0.374 |
| AAGGTACA | -0.0142 |
| CAAAGAGA | -0.0905 |
| ACTTGTGC | 0.0157 |
| TCGTTGAA | 0.0389 |
| AAATCCTC | -0.175 |
| ATAACTCC | -0.106 |
| CATATACA | 0.175 |
| CTAGGTAC | 0.0158 |
| GGATGCCC | -0.344 |
| ACCGAGCT | -0.0669 |
| CATCCCAG | -0.0821 |
| CGCAGACA | -0.117 |
| CATAGTGA | 0.145 |
| ATGGTCAA | 0.13 |
| ATATTCCA | 0.0448 |
| CTGCACCC | -0.223 |
| CTATTTTC | -0.0489 |
| ATGACGGC | -0.125 |
| CGAGGAAA | -0.223 |
| GCGCTGAC | 0.109 |
| CTAATTCC | 0.092 |
| AGGCGCAT | -0.155 |

| Sequence | PBM E-score |
| --- | --- |
| AGTCACGG | 0.469 |
| CACACGCC | 0.00407 |
| CGCTTTGC | -0.0726 |
| GTCTTCTA | 0.169 |
| CAAGCGCG | -0.0964 |
| AGAAAGGG | -0.25 |
| GGCTAATA | -0.00286 |
| ACAAGCTG | -0.0827 |
| CGAGATCC | -0.198 |
| AGGAGGTG | -0.23 |
| ATCGAGAA | 0.00256 |
| CATGGTCA | 0.139 |
| GCGTAGCC | 0.074 |
| CACCTAAA | 0.0738 |
| AAGCAGTA | -0.168 |
| CTGGCCGA | -0.131 |
| ACAATGGC | -0.146 |
| GTACTGAA | 0.0498 |
| AGACTTGC | -0.0824 |
| CGGATCCC | -0.258 |
| CTGGCAGC | -0.215 |
| ACGCGTCC | -0.12 |
| AGCATTTA | -0.1 |
| CAAAATCG | 0.0647 |
| GATTACCC | 0.303 |

| Sequence | PBM E-score |
| --- | --- |
| GATAGGCC | -0.339 |
| ACGTCCCG | -0.231 |
| GACCCGAA | -0.0744 |
| CCTAAGGC | -0.3 |
| AGTTCTGG | 0.0591 |
| CAATCATC | 0.422 |
| GCGAGACA | 0.078 |
| GATTCGCA | 0.24 |
| ACCATGCA | -0.0917 |
| CAATCATG | 0.369 |
| AAGCCCAC | -0.14 |
| CTTCGCCA | -0.0406 |
| ACCGCCAT | -0.0297 |
| CAATAATA | 0.0325 |
| CCCAAACC | -0.17 |
| CAGCCTTA | 0.0218 |
| AAGTGGAA | -0.0369 |
| CGAACCTC | 0.0376 |
| ACTGGGCC | -0.0542 |
| AACGGTGC | -0.101 |
| AGCACCGC | -0.275 |
| AGCTGAAG | -0.154 |
| AGGTGTTG | -0.0714 |
| TAGAAGCA | -0.0187 |
| GGAGTGAA | 0.00813 |

| Sequence | PBM E-score |
| --- | --- |
| GTGTCGGA | -0.155 |
| TCATTCAA | 0.155 |
| ACCGCACC | -0.0669 |
| AACCATAA | 0.214 |
| CTGAGGGA | -0.0863 |
| GCAGTTTA | -0.0332 |
| GTACGCAA | -0.121 |
| CCCAAGTA | -0.18 |
| CCCGGCAC | -0.131 |
| AATCAAGG | 0.245 |
| CTAGCAGA | 0.0408 |
| GGGACCTA | -0.278 |
| AGAGTCTA | 0.158 |
| CGCACACG | -0.0897 |
| ATTGTGAC | 0.224 |
| GTCAAGAA | 0.127 |
| ATTTAAAA | 0.0812 |
| CCCACGAA | 0.00666 |
| CTTAGGAC | 0.0418 |
| AGTGTTTG | 0.0126 |
| TACTAGCA | 0.0217 |
| TCCAGTAA | -0.0578 |
| CTTCTCGC | -0.209 |
| CGGCTGAC | 0.165 |
| AGCTACAC | 0.0599 |

| Sequence | PBM E-score |
| --- | --- |
| AGCGAACG | -0.0737 |
| GATACAGA | -0.0679 |
| ACGAATCG | 0.136 |
| CGGTTGCA | -0.0928 |
| CGGAGCCG | -0.0548 |
| GATACCTA | 0.0265 |
| ATCATGAG | 0.34 |
| CGTTTCTA | -0.0262 |
| ATTTCGCC | -0.0382 |
| CATGCCAG | -0.041 |
| GAAGGTGC | -0.207 |
| CGCTTAGA | -0.0803 |
| GTTCTCTA | -0.0867 |
| CATCGCCA | -0.0179 |
| GATATCTA | 0.0438 |
| AAACCCTT | -0.0854 |
| CCAAGATA | 0.0362 |
| AACTGGCC | -0.17 |
| ACGATGTC | 0.0538 |
| AGCGTTAT | -0.258 |
| TCGATCGA | 0.313 |
| ACATTTAG | -0.11 |
